Data taken from patent US20240239885A1, “ANTIBODY CONJUGATE COMPRISING ANTI-P-CADHERIN ANTIBODY AND USES THEREOF” (WUXI BIOLOGICS IRELAND LIMITED, priority 2021, published 2024).

Experiments:
[1] = biological target: T1, P-cadherin expressed on HCT-116 cells (Homo sapiens, UniProt P22223); test: Target binding (FACS) on HCT-116 cells
T1 construct: endogenous in cells; host or cells: HCT-116
Description: Binding of the ADCs to P-cadherin expressed on HCT-116 cells was determined by flow cytometry analysis using the same procedure as described above. In brief, HCT-116 or NCI-H1650 cells were harvested with Versene (Invitrogen, #15040066) and diluted to 1×10^6 cells/ml in 1% BSA (Bovogen, #BSAS)/1×PBS (Ca+/Mg+) (Gibco, #14040-117). 1×10^5 cells/well (100 μL) were added to each well of a 96-well U-plate (Corning, #3799) and centrifuged at 1500 rpm (Eppendorf, #5810R) for 5 minutes before removing the supernatant. Antibodies serially diluted in 1% BSA/1×PBS (Ca+/Mg+) were added at 100 μL/well to the pelleted cells and incubated at 4° C. for 1 hour. A non-related hlgG1 antibody was used as an isotype control. Cells were washed two times with 180 μL/well of 1% BSA/1×PBS (Ca+/Mg+) by centrifugation at 1500 rpm for 5 minutes at 4° C. […] After the final wash, cells were resuspended in 100 μL 1% BSA/1×PBS (Ca+/Mg+) and fluorescence values were measured with a FACS Canto II cytometer (BD Biosciences). The amount of cell surface bound anti-P-Cadherin antibody was assessed by measuring the mean fluorescence (MFI). The FACS raw data were analyzed by FlowJo software, wells containing no antibody or secondary antibody only were used to establish background fluorescence.

A549 cells = test: Cytotoxicity assay of ADC (Cell Titer Glo) on A549; assay type: cell-based, human
NCI-H1650 cells = test: Cytotoxicity assay of ADC (Cell Titer Glo) on NCI-H1650; assay type: cell-based, human; details: NCI-H1650, 5 days
Jurkat = test: Non-specific binding (FACS) on Jurkat; set-up: species or system human; details: 10 μg/mL
Description: (§1) Human cell lines were seeded in 96-well plates (BD) at a density of 1×10^5 cells/well. 10 μg/mL antibody samples were added to cells and incubated for 1 h at 4° C. After washing, the cells were resuspended and incubated with PE-conjugated goat anti-human IgG Fc antibody (Jackson) for 30 min. After washing and resuspending, mean fluorescence intensity (MFI) was measured by flow cytometry (BD Canto II) and analyzed by FlowJo.

HT29 = test: Non-specific binding (FACS) on HT29; set-up: species or system human; details: HT29, 10 μg/mL
Description: as §1

HepG2 = test: Non-specific binding (FACS) on HepG2; set-up: species or system human; details: HepG2, 10 μg/mL
Description: as §1

SK-OV-3 = test: Non-specific binding (FACS) on SK-OV-3; set-up: species or system human; details: SK-OV-3, 10 μg/mL
Description: as §1

A375 = test: Non-specific binding (FACS) on A375; set-up: species or system human; details: A375, 10 μg/mL
Description: as §1

H1 Hela = test: Non-specific binding (FACS) on H1 Hela; set-up: species or system human; details: 10 μg/mL
Description: as §1

293F = test: Non-specific binding (FACS) on 293F; set-up: species or system human; details: 10 μg/mL
Description: as §1

BT474 = test: Non-specific binding (FACS) on BT474; set-up: species or system human; details: BT474, 10 μg/mL
Description: as §1

HCC70 breast tumor = test: Xenografted HCC70 breast tumor model, Study I; assay type: in vivo, SCID-17B female mice; details: 1 mg/kg, intravenous, single dose, vs Isotype control
Description: WBP3195-p1-ADC in efficacy study was tested in HCC70 breast tumor model in SCID-17B female mice. […] The tumor cells were routinely sub-cultured twice a week with 0.25% trypsin-EDTA treatment. The cells growing in an exponential growth phase were harvested and counted for tumor inoculation. The harvested cells were re-suspended in PBS at a density of 1.0×10^8 cells/mL then added the equivalent matrigel (final 1.0×10^7 cells/200 μL/mouse) with viability >90% and subcutaneously implanted into the right front flank of animals.
The day of intravenous injection was considered as day 0. For all tumor studies, mice were weighed and tumor growth was measured twice a week using calipers.
Ti is the average tumor volume of a treatment group on a given day. TO is the average tumor volume of the treatment group on the first day of treatment. Vi is the average tumor volume of the vehicle control group on the same day with Ti and V0 is the average tumor volume of the vehicle group on the first day of treatment. Relative change of bodyweight change (RCBW) was calculated with the formula [(BWt−BW0)/BW0]×100%, BW0 is the average bodyweight at day0, BWt is the average bodyweight at a measurement day. […] Data at day 34 were analyzed using Ordinary one-way ANOVA Tukey's multiple comparisons test with Graphpad Prism 6.0 and p<0.05 was considered as statistically significant.

HT-29 cells = test: Cytotoxicity assay of ADC (Cell Titer Glo) on HT-29
HCC-1954 cells = test: Cytotoxicity assay of ADC (Cell Titer Glo) on HCC-1954; details: HCC-1954, 5 days

T1 sequence (P22223 108-829): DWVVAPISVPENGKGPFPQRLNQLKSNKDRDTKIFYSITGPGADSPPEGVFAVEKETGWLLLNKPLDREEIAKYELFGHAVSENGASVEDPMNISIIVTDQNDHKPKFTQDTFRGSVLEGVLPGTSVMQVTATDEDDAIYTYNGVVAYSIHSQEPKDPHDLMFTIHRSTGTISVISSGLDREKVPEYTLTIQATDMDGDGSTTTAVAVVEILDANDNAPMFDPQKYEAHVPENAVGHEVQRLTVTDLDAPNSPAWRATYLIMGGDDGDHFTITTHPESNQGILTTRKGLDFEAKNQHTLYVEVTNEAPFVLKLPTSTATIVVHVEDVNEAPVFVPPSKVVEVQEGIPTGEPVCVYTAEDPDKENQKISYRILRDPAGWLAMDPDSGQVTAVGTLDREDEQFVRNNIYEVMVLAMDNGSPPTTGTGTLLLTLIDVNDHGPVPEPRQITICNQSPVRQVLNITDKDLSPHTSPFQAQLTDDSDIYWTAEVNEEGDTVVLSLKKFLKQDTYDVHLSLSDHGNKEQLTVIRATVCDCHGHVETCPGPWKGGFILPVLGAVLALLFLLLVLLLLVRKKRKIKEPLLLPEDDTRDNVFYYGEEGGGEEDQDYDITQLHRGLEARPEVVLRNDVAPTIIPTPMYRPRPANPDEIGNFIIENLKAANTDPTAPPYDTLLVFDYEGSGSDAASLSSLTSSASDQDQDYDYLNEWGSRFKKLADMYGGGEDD

B1: W3195-1.53.1-p1-uIgG1L-MMAE (conjugate)
heavy: QVQLQESGPGLVKPSETLSLTCTVSGGSVISDNYYWTWVRQPPGKGLEFIGYIYYRGSTNYNPSLKNRVIISIDTSRNQFSLDLNSVTAADTAVYYCARDRRTGNSLPFDNWGQGTLVTVSSASTKGPSVFPLAPSSKSTSGGTAALGCLVKDYFPEPVTVSWNSGALTSGVHTFPAVLQSSGLYSLSSVVTVPSSSLGTQTYICNVNHKPSNTKVDKRV[human IgG1 Fc not written out]
light: SYELTQPPSVSVSPGQTAQITCSGDKLGDKFASWYQQKSGQSPVVVIYQDNKRPSGFPERFSGSNSGNTATLTISGTQAMDEADYYCQAWDSSIVVFGGGTKLTVLGQPKAAPSVTLFPPSSEELQANKATLVCLISDFYPGAVTVAWKADSSPVKAGVETTTPSKQSNNKYAASSYLSLTPEQWKSHRSYSCQVTHEGSTVEKTVAPTECS
Max MFI, FACS binding [1]: 6164
IC50 (A549 cells; A549 (P-cadherin low expressing), 5 days, read-out: IC50 (nM), ADC toxicity): > 10 nM
Max Inh % (A549 cells; A549, 5 days): −7.8%
Max Inh % (NCI-H1650 cells): 80%
MFI, non-specific binding (Jurkat): 63.5
MFI, non-specific binding (HT29): 26.4
MFI, non-specific binding (HepG2): 52.6
MFI, non-specific binding (SK-OV-3): 30.6
MFI, non-specific binding (A375): 20.3
MFI, non-specific binding (H1 Hela): 27
MFI, non-specific binding (293F): 35.1
MFI, non-specific binding (BT474): 34.6
TGI (%), Day 34 (HCC70 breast tumor): 85.15%
Max Inh % (HT-29 cells; HT-29, 5 days): −4.1%
IC50 (HT-29 cells; read-out: IC50 (nM), ADC cytotoxicity, HT-29 (P-cadherin low expressing), 5 days): > 10 nM
Max Inh % (HCC-1954 cells): 96.9%
